The other results are listed elsewhere or left out. The list includes weakly bound sequences.

Drawing on PMC12820563, this text covers binding signal (RPM ratio (pull-down/input)) for 31 sequences.

This assay has as its target T1, MBP-FoxP3dN (UniProt Q99JB6).
T1 sequence: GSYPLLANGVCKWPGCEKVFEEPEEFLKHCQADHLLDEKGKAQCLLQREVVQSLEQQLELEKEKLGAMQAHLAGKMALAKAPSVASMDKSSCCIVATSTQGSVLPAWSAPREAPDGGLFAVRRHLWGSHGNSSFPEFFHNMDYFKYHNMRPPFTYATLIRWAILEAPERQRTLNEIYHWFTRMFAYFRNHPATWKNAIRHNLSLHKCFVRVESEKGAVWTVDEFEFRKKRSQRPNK
The experiment in a line: PD-seq (MBP pull-down with sequencing). To be noted: 20 mM Tris-HCl pH 7.5, 100 mM NaCl, 1.5 mM MgCl2, 0.4 uM protein, 0.1 uM dsDNA library, 30 min, room temperature, amylose pull-down; high values mean tight binding; double strand, one strand shown.
For the sequence “GATGATTGTTCTCCCAGCTGATGAATTGGAGTAGTCGAGTAAACAAATTTTCCTAATCTTTCTGTTCAAGCGCCATCTAC”, the binding signal (RPM ratio (pull-down/input)) turned out to be 0.38.
On to “GATGATTGTTCTCCCAGCTGATGAATTCATGTGCTCGAGTAAACAAATTTTCCTAATCTTTCTGTTCAAGCGCCATCTAC”, for which the binding signal (RPM ratio (pull-down/input)) was 0.894.
As to “GATGATTGTTCTCCCAGCTGATGAATTCTGGAAATCGAGTAAACAAATTTTCCTAATCTTTCTGTTCAAGCGCCATCTAC”, the binding signal (RPM ratio (pull-down/input)) was found to be 0.256.
As to “GATGATTGTTCTCCCAGCTGATGAATTCCCTAGGTCGAGTAAACAAATTTTCCTAATCTTTCTGTTCAAGCGCCATCTAC”, the binding signal (RPM ratio (pull-down/input)) was 0.184.
Then “GATGATTGTTCTCCCAGCTGATGAATTATTATTGTCGAGTAAACAAATTTTCCTAATCTTTCTGTTCAAGCGCCATCTAC”, with 2.61; and “GATGATTGTTCTCCCAGCTGATGAATTGACTACATCGAGTAAACAAATTTTCCTAATCTTTCTGTTCAAGCGCCATCTAC”, with 0.519; and “GATGATTGTTCTCCCAGCTGATGAATTAGGCTCCTCGAGTAAACAAATTTTCCTAATCTTTCTGTTCAAGCGCCATCTAC”, with 0.814.
In the case of “GATGATTGTTCTCCCAGCTGATGAATTTAAATCTTCGAGTAAACAAATTTTCCTAATCTTTCTGTTCAAGCGCCATCTAC” it was 0.312; in that of “GATGATTGTTCTCCCAGCTGATGAATTTTGTAATTCGAGTAAACAAATTTTCCTAATCTTTCTGTTCAAGCGCCATCTAC”, 3.43.
Then “GATGATTGTTCTCCCAGCTGATGAATTTCCTTTATCGAGTAAACAAATTTTCCTAATCTTTCTGTTCAAGCGCCATCTAC”, with 0.431; and “GATGATTGTTCTCCCAGCTGATGAATTGCCTGCTTCGAGTAAACAAATTTTCCTAATCTTTCTGTTCAAGCGCCATCTAC”, with 0.766; and “GATGATTGTTCTCCCAGCTGATGAATTTCGACGCTCGAGTAAACAAATTTTCCTAATCTTTCTGTTCAAGCGCCATCTAC”, with 0.517.
On to “GATGATTGTTCTCCCAGCTGATGAATTGAAGTGTTCGAGTAAACAAATTTTCCTAATCTTTCTGTTCAAGCGCCATCTAC”, for which the binding signal (RPM ratio (pull-down/input)) stood at 0.596.
For “GATGATTGTTCTCCCAGCTGATGAATTTACTTGATCGAGTAAACAAATTTTCCTAATCTTTCTGTTCAAGCGCCATCTAC”, the binding signal (RPM ratio (pull-down/input)) is 0.505.
Then “GATGATTGTTCTCCCAGCTGATGAATTCCCATACTCGAGTAAACAAATTTTCCTAATCTTTCTGTTCAAGCGCCATCTAC”, with 0.332; and “GATGATTGTTCTCCCAGCTGATGAATTCGCGCGTTCGAGTAAACAAATTTTCCTAATCTTTCTGTTCAAGCGCCATCTAC”, with 1.62; and “GATGATTGTTCTCCCAGCTGATGAATTACACGCTTCGAGTAAACAAATTTTCCTAATCTTTCTGTTCAAGCGCCATCTAC”, with 0.71.
Then “GATGATTGTTCTCCCAGCTGATGAATTCTACCTCTCGAGTAAACAAATTTTCCTAATCTTTCTGTTCAAGCGCCATCTAC”, with 0.381; and “GATGATTGTTCTCCCAGCTGATGAATTCAGGGGTTCGAGTAAACAAATTTTCCTAATCTTTCTGTTCAAGCGCCATCTAC”, with 0.479.
In the case of “GATGATTGTTCTCCCAGCTGATGAATTATACATCTCGAGTAAACAAATTTTCCTAATCTTTCTGTTCAAGCGCCATCTAC” it was 0.853; in that of “GATGATTGTTCTCCCAGCTGATGAATTGTAGCTATCGAGTAAACAAATTTTCCTAATCTTTCTGTTCAAGCGCCATCTAC”, 1.07; in that of “GATGATTGTTCTCCCAGCTGATGAATTTTACGCGTCGAGTAAACAAATTTTCCTAATCTTTCTGTTCAAGCGCCATCTAC”, 0.624.
In the case of “GATGATTGTTCTCCCAGCTGATGAATTACGCGGTTCGAGTAAACAAATTTTCCTAATCTTTCTGTTCAAGCGCCATCTAC”, the binding signal (RPM ratio (pull-down/input)) stood at 0.676.
Consider “GATGATTGTTCTCCCAGCTGATGAATTACAATTATCGAGTAAACAAATTTTCCTAATCTTTCTGTTCAAGCGCCATCTAC”, for which the binding signal (RPM ratio (pull-down/input)) stood at 1.19.
Then “GATGATTGTTCTCCCAGCTGATGAATTGAAAATGTCGAGTAAACAAATTTTCCTAATCTTTCTGTTCAAGCGCCATCTAC”, with 0.244; and “GATGATTGTTCTCCCAGCTGATGAATTTCCCATCTCGAGTAAACAAATTTTCCTAATCTTTCTGTTCAAGCGCCATCTAC”, with 0.305.
In the case of “GATGATTGTTCTCCCAGCTGATGAATTCCGTTCATCGAGTAAACAAATTTTCCTAATCTTTCTGTTCAAGCGCCATCTAC” it was 0.511; in that of “GATGATTGTTCTCCCAGCTGATGAATTCCCACTTTCGAGTAAACAAATTTTCCTAATCTTTCTGTTCAAGCGCCATCTAC”, 0.326.
As for “GATGATTGTTCTCCCAGCTGATGAATTGACTGAGTCGAGTAAACAAATTTTCCTAATCTTTCTGTTCAAGCGCCATCTAC”, the binding signal (RPM ratio (pull-down/input)) was 0.276.
On to “GATGATTGTTCTCCCAGCTGATGAATTGTAAGTTTCGAGTAAACAAATTTTCCTAATCTTTCTGTTCAAGCGCCATCTAC”, for which the binding signal (RPM ratio (pull-down/input)) amounted to 0.584.
Then “GATGATTGTTCTCCCAGCTGATGAATTCCGTGTCTCGAGTAAACAAATTTTCCTAATCTTTCTGTTCAAGCGCCATCTAC”, with 1.42.
